Source: PubChem BioAssay AID652025 (National Center for Advancing Translational Sciences (NCATS), 2013)
In all, about 360,000 compounds went through this assay and about 240 (0.067%) were called active. Inconclusive means that the source gave no clear call. Such entries were picked first, then a sample of the others. Cut-off read from the data, not from the text of the source: active = activation above about 50%; inconclusive = mostly about 30% to 49%; inactive = weaker than that.

Test: qHTS of IL-2 Activators; note: 0% is about no effect
Conditions: IL-2 activation reporter assay, cell-based qHTS; hits give high values; in transgenic mouse T cells; stimulated with anti-CD3/CD4/CD28 beads
Excerpt: The adaptive immune response against any infectious agent begins with the activation of an antigen specific T cell. This relatively rare and inert ("naive") T cell undergoes a massive proliferative expansion and differentiation process to generate sufficient number of potent pathogen-specific effector T cells. The effector T cells fight the infection by making cytokines and helping other cells to become fully armed as well. If any naive T cell has antigen receptors (TCRs) that can be activated by self peptides, then a variety of regulatory mechanisms kick in to prevent this cell from performing to its full potential. These processes collectively constitute the phenomenon of immunological tolerance and their failure leads to autoimmunity. One arm of tolerance involves generation of biochemical negative feedback downstream of the TCR (tuning). This is especially relevant to self antigens present in the body over long periods of time (chronic), which form the bulk of our proteome. The negative feedback serves to tune the TCR signaling, such that the ambient antigenic stimulation is nullified intracellularly. Unfortunately, this critical machinery serves as a target for chronic viral, bacterial and parasitic infections (as well as tumors), which can evade a robust immune response, simply by allowing T cells to tune down their signaling to pathogen or malignancy derived antigens. As such, disrupting the tuning in such cases would allow the tolerant T cell to function again and deliver a robust effector response.
If a therapeutic can restore responsiveness to the tuned down T cell, even for a short time, they could combat the pathogen without any additional immunization. To that end, we have developed a sensitive HTS T cell based assay based on IL-2. This assay will be screened against the Molecular Libraries Small Molecule Repository (MLSMR) to find small molecules that could elicit this response.
NIH Chemical Genomics Center [NCGC]
NIH Molecular Libraries Probe Centers Network [MLPCN]
Assay Submitter (PI): Ron Schwartz, NIAID
4 microL (750 cells/well) of unstimulated transgenic mouse T cells (columns 1-3,5-48) are dispensed into Aurora LoBase, black clear-bottom 1536-well assay plates; column 4 receives an identical concentration of transgenic memory T cells as a non-tolerant control. Compounds are then transferred via Kalypsys pin tool equipped with 1536-pin array (10 nL slotted pins, V&P Scientific, San Diego, CA). Following addition of compound and a 60 minute incubation, 1 microL of bead stimulation solution ((0.04 micron Fluospheres (Life technologies, CA) coated with 10ug/ml each anti-CD3 and anti-CD4 (clones 2C11 and GK1.5, BD Biosciences, CA) and mixed with 1ug/ml anti-CD28 (clone PV-1, BD biosciences, CA)). columns 2-48) is added to stimulate the IL-2 response pathway; media is instead added to column 1 as an unstimulated control, while PMA/ionomycin (Sigma Aldrich, MO) is added to column 3 as a control for IL-2 tolerance bypass. The plates are then incubated at 37 degrees C for 18 hours. EGFP and DsRed signal are then detected using an Acumen eX3 Explorer fluorescent plate cytometer. All cells are dispensed in cell media containing EHAA (Quality Biologicals, MD), RPMI (Quality Biologicals, MD), Glutamine (Life Technologies, CA), Penicillin/Streptomycin (Quality Biologicals, MD), 2-ME (Sigma Aldrich, MO) and 10% FBS (Gemini Bioproducts, CA) .

Question: Which activation does the source give for `O=c1c2ccccc2nc(/C=C/c2ccc([N+](=O)[O-])o2)n1-c1ccc(O)cc1` here?
Answer: inconclusive: 32.2%

Question: With `COc1ccc(OC)c(N=Cc2c(O)n(Cc3ccccc3)c(=S)[nH]c2=O)c1` as the compound, how does the activation read?
Answer: active: 79.6%

Question: With `CC(Cc1ccccc1)NC(=O)/C=C/c1ccc(Cl)cc1` (stereo not drawn) as the compound, how does the activation read?
Answer: active: 87.1%

Question: For `Cc1c(N=Cc2c(O)n(C3CCCCC3)c(=O)[nH]c2=O)c(=O)n(-c2ccccc2)n1C`, which activation is on record?
Answer: active: 62%

Question: Which activation does the source give for `CN1/C(=C\C=C2C(=O)NC(=O)NC2=O)C(C)(C)c2ccccc21` here?
Answer: inconclusive: 32%

Question: Which activation does the source give for `Nc1ccc2c3c(cccc13)CC2` here?
Answer: active: 83.3%

Question: With `Cc1ccc(N2C(=O)NC(=O)/C(=C/c3cnc(-c4ccccc4)nc3)C2=O)cc1C` as the compound, how does the activation read?
Answer: inconclusive: 49.9%

Question: Which activation does the source give for `CC(C)CC(C)N` (stereo not drawn) here?
Answer: inactive: 0.346%

Question: With `Nc1c(Br)cc2c3c(cccc13)-c1ccccc1-2` as the compound, how does the activation read?
Answer: active: 81.8%

Question: For `Cc1cc(N2CCCC2)ccc1C=C(C#N)C#N`, which activation is on record?
Answer: inconclusive: 38.9%

Question: Which activation does the source give for `O=c1[nH]c(O)c(/C=C2\C=Nc3ccc(OCc4ccccc4)cc32)c(=O)[nH]1` here?
Answer: active: 193%

Question: Which activation does the source give for `O=c1[nH]c(=O)n(C2CCCCC2)c(O)c1/C=C/C=Nc1ccccc1` here?
Answer: inconclusive: 35.5%

Question: Which activation does the source give for `O=[N+]([O-])c1ccc(N2CCCC2)c2ncccc12` here?
Answer: inconclusive: 34.8%

Question: Which activation does the source give for `N#Cc1c(/N=C/c2ccc(O)cc2O)sc2c1C1CCN2CC1` here?
Answer: inconclusive: 35.3%

Question: With `Nc1c(C(=O)NCCN2CCOCC2)c2nc3ccccc3nc2n1Cc1ccccc1` as the compound, how does the activation read?
Answer: inactive: -4.35%

Question: For `COCCCNC(=O)c1c(NC(=O)c2ccccc2)n(Cc2ccccc2)c2nc3ccccc3nc12`, which activation is on record?
Answer: active: 67.9%

Question: Which activation does the source give for `CCOc1ccc(-n2c(O)c(C=Nc3ccc(N4CCOCC4)cc3)c(=O)[nH]c2=O)cc1` here?
Answer: inconclusive: 39.6%

Question: For `Cc1cc(/C=C2\C(=O)NC(=O)N(c3cccc(Br)c3)C2=O)c(C)n1C`, which activation is on record?
Answer: active: 67.7%
